According to the supplement of paper PMC7125110:
± gives the standard error. This sample is rich in variants without activity.

B1: glmS ribozyme (parent)
chain: AUAAAAGCGCCAGAACUACAGAAAUGUAGUUGACGAGGAGGAGGUUUAUCGAAUUUUCGGCGGAUGCCUCCAAA

Experiments:
Details in all cases: with glucosamine-6-phosphate
glucosamine-6-phosphate [1] = variants of: B1; assay: self-cleavage kobs at 640 uM GlcN6P; higher = faster cleavage; RNA array
Procedure, shortened: (§1)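 A hybridised Cy3 probe tracked barcoded ribozyme variants, transcribed in situ by E. coli RNA polymerase on sequenced MiSeq chips, at 37 °C. The variants received 40 μM to 10 mM glucosamine-6-phosphate in HEPES/KCl/Mg(OAc)2 buffer. kobs came from decay fits and kcat and KM from weighted Michaelis–Menten fits.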

glucosamine-6-phosphate [2] = variants of: B1; assay: self-cleavage kobs at 2500 uM GlcN6P; higher = faster cleavage; RNA array
Procedure, shortened: as §1

glucosamine-6-phosphate [3] = variants of: B1; assay: self-cleavage kobs at 160 uM GlcN6P; higher = faster cleavage; RNA array
Procedure, shortened: as §1

glucosamine-6-phosphate [4] = variants of: B1; assay: self-cleavage kobs at 10000 uM GlcN6P; higher = faster cleavage; RNA array
Procedure, shortened: as §1

glucosamine-6-phosphate [5] = variants of: B1; assay: self-cleavage kobs at 40 uM GlcN6P; higher = faster cleavage; RNA array
Procedure, shortened: as §1

Row | Variant | self-cleavage kobs at 640 uM GlcN6P (glucosamine-6-phosphate [1]) | self-cleavage kobs at 2500 uM GlcN6P (glucosamine-6-phosphate [2]) | self-cleavage kobs at 160 uM GlcN6P (glucosamine-6-phosphate [3]) | self-cleavage kobs at 10000 uM GlcN6P (glucosamine-6-phosphate [4]) | self-cleavage kobs at 40 uM GlcN6P (glucosamine-6-phosphate [5])
1 | G7C C10A G13A G37A U45A | < 1e-05 s⁻¹ | < 1e-05 s⁻¹ |  |  | 
2 | C8G G32U G44C | < 1e-05 s⁻¹ |  |  |  | 
3 | A6C C50U | < 1e-05 s⁻¹ | < 1e-05 s⁻¹ | < 1e-05 s⁻¹ | < 1e-05 s⁻¹ | 
4 | G7A A33C A39G G62C | < 1e-05 s⁻¹ |  |  |  | 
5 | G62U G66U |  |  | < 1e-05 s⁻¹ | < 1e-05 s⁻¹ | < 1e-05 s⁻¹
6 | G7C A14C A52U | < 1e-05 s⁻¹ | < 1e-05 s⁻¹ |  |  | 
7 | A6G C61G C71G | 7.45e-05 ± 2.4e-05 s⁻¹ |  |  |  | 
8 | G7U C8A G35A U55C | < 1e-05 s⁻¹ |  |  |  | 
9 | C58U G66A |  |  |  |  | < 1e-05 s⁻¹
10 | A6G A14C U30A C68A | < 1e-05 s⁻¹ |  |  |  | 
11 | C8G G40U A52U | < 1e-05 s⁻¹ |  | < 1e-05 s⁻¹ |  | 
12 | C8A G13U C70U | < 1e-05 s⁻¹ | < 1e-05 s⁻¹ | < 1e-05 s⁻¹ |  | 
13 | G7U A14G G40U | < 1e-05 s⁻¹ | < 1e-05 s⁻¹ |  |  | 
14 | A6C A48U U49G | < 1e-05 s⁻¹ | < 1e-05 s⁻¹ | < 1e-05 s⁻¹ |  | 
15 | A6G U49C U55A | < 1e-05 s⁻¹ | < 1e-05 s⁻¹ |  |  | 
16 | A6U G7U | < 1e-05 s⁻¹ | < 1e-05 s⁻¹ | < 1e-05 s⁻¹ | < 1e-05 s⁻¹ | 
17 | A6G U55G G59A | < 1e-05 s⁻¹ |  |  |  | 
18 | G7U C34A A36U | < 1e-05 s⁻¹ |  |  |  | 
19 | A6C G13U G51U A52C A64U | < 1e-05 s⁻¹ | < 1e-05 s⁻¹ | < 1e-05 s⁻¹ |  | 
20 | C8A G32U U45G A48G C71A | < 1e-05 s⁻¹ |  |  |  | 
21 | C8G G32U C58U | < 1e-05 s⁻¹ |  | < 1e-05 s⁻¹ |  | 
22 | G7C G38C G66A | < 1e-05 s⁻¹ | < 1e-05 s⁻¹ |  |  | 
23 | C8G A14U G63A C70U C71U | < 1e-05 s⁻¹ | < 1e-05 s⁻¹ |  |  | 
24 | U57G G60A | < 1e-05 s⁻¹ | < 1e-05 s⁻¹ | < 1e-05 s⁻¹ |  | < 1e-05 s⁻¹
25 | G7U C61G C67A | 0.000105 ± 4.6e-05 s⁻¹ | 0.00214 ± 0.00087 s⁻¹ |  |  | 
26 | A6U G44U U55C | < 1e-05 s⁻¹ | < 1e-05 s⁻¹ | < 1e-05 s⁻¹ |  | 
27 | G62U C67A |  |  |  |  | < 1e-05 s⁻¹
28 | G7C U54C A64C | < 1e-05 s⁻¹ | < 1e-05 s⁻¹ |  |  | 
29 | A6U C50G U55A C71U | 0.00151 ± 0.00047 s⁻¹ |  |  |  | 
